{"source": "PubChem BioAssay AID686979", "about": "(National Center for Advancing Translational Sciences (NCATS), 2013)", "note": "Where “and” joins values, the source holds several entries; their conditions need not be identical. Equal entries are not always repeated. In all, about 420,000 compounds went through this assay and about 50,000 (12%) were called active. Inconclusive means that the source gave no clear call. Such entries were picked first, then a sample of the others. Calls come from the whole dose curve; as a rule, active = well fitted inhibition curve with a large enough effect; inconclusive = small, poorly fitted or top-dose-only effect; inactive = flat fitted curve, though single readings scatter. Potencies of inconclusive entries are doubtful fits and often do not repeat. % is set by controls: 0 for no effect and ±100 for the full control effect; potency is the fitted concentration of half-maximal effect; tags give direction and shape of the fitted curve.", "data": [{"assay": "qHTS for Inhibitors of human tyrosyl-DNA phosphodiesterase 1 (TDP1): qHTS in cells in presence of CPT; note: nearly all actives have a fitted effect of over 55% in size", "settings": "chicken DT40 Tdp1-/-;hTDP1 cells + 20 nM CPT, ATP luminescence, 48 h; activity change, negative = growth inhibition: at 46.2 µM (top of the series)", "outline": "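Chicken DT40 Tdp1-/- cells stably complemented with human TDP1 were seeded at 400 cells/well in medium containing 20 nM camptothecin, exposed to pin-transferred compounds, and grown at 37 °C for at least 48 hr. Viability was read as ATP luminescence.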", "values": [{"smiles": "CCOc1ccccc1NC(=O)C(NCCc1ccc(OC)cc1)c1ccccc1", "note": "(stereo not drawn)", "Potency": "active: 23.1 µM"}, {"smiles": "CCn1c(C(=O)N2CCC(C(=O)N3CCN(c4ccccn4)CC3)CC2)cc2sccc21", "Potency": "inconclusive: 29.1 µM [inhibitor, single point]"}, {"smiles": "CCc1cccc(C)c1NC(=O)Cn1cc2c(n1)CCCCC2", "Potency": "inconclusive: 25.9 µM [inhibitor, single point]"}, {"smiles": "O=C(NCCC(=O)N(CCc1ccccc1)Cc1ccccc1)c1ccc([N+](=O)[O-])cc1", "Potency": "inconclusive: 29.1 µM [inhibitor, single point]"}, {"smiles": "Cc1ccccc1CN(C)Cc1cc(=O)oc2c(C)c(C)ccc12", "Potency": "inconclusive: 32.6 µM [inhibitor, single point]"}, {"smiles": "O=C(NCc1ccco1)c1cccc2c1C(=O)c1ccc(N3CCCC3)cc1S2(=O)=O", "Potency": "inconclusive: 20.6 µM [inhibitor, single point]"}, {"smiles": "CC(CNC(=S)Nc1cc(F)cc(F)c1)CSc1ccc(Cl)cc1", "note": "(stereo not drawn)", "Potency": "inconclusive: 29.1 µM [inhibitor, single point]"}, {"smiles": "COc1ccccc1C(c1c(O)nc(SC)[nH]c1=O)c1c(O)nc(SC)[nH]c1=O", "activity change, negative = growth inhibition": "inactive: -1.05%"}, {"smiles": "CCCC(=O)N/C(N)=N/c1nc(C)c2ccccc2n1", "Potency": "inconclusive: 18.4 µM [inhibitor, single point]"}, {"smiles": "NC(=O)Nc1ccccc1C(=O)N1CCC(O)(c2ccc(Cl)cc2)CC1", "activity change, negative = growth inhibition": "inactive: -7.87%"}, {"smiles": "COc1ccc(N(CC(=O)NCCSCc2ccc(Cl)cc2)S(C)(=O)=O)cc1Cl", "Potency": "inconclusive: 25.9 µM [inhibitor, single point]"}, {"smiles": "COC(=O)c1cc(N2CCNCC2)nc2ccccc12", "Potency": "inconclusive: 20.6 µM [inhibitor, single point]"}, {"smiles": "CCC(C)NC(=O)CSc1nc(-c2ccc(F)cc2)cc(C(F)(F)F)n1", "note": "(stereo not drawn)", "activity change, negative = growth inhibition": "inactive: -18.6%"}, {"smiles": "O=C(c1ccccc1Cc1ccccc1)N1CCN(S(=O)(=O)c2ccccc2[N+](=O)[O-])CC1", "Potency": "inconclusive: 13 µM [inhibitor, single point]"}, {"smiles": "O=C(Cc1ccc([N+](=O)[O-])cc1)Nc1ccc(O)cc1C(=O)O", "activity change, negative = growth inhibition": "inactive: -16.4%"}, {"smiles": "CCCCc1oc2c(c(=O)c1C)C(=O)CC(c1ccccc1)C2", "note": "(stereo not drawn)", "Potency": "inconclusive: 29.1 µM [inhibitor, single point]"}, {"smiles": "COCCn1c(SCC(=O)N(C)c2c(N)n(Cc3ccccc3)c(=O)[nH]c2=O)nnc1-c1cccc(C)c1", "activity change, negative = growth inhibition": "inactive: 9.87%"}, {"smiles": "NC(=O)c1cccc(-c2cnc(N)c(C(=O)c3cccnc3)n2)c1", "Potency": "active: 2.31 µM"}, {"smiles": "Cc1ccc(CNC(=O)c2cc(=O)c3cc(C)cc(C)c3o2)cc1", "activity change, negative = growth inhibition": "inactive: -16%"}, {"smiles": "CC(=C/c1ccc(C(C)C)cc1)/C=N/NC(=O)Cn1nc(C)cc1C", "Potency": "inconclusive: 23.1 µM [inhibitor, single point]"}, {"smiles": "Cc1nnc(N/N=C/c2ccc(Br)cc2)n1N", "Potency": "inconclusive: 4.11 µM [inhibitor, full curve]"}, {"smiles": "COc1cc(CCC(C)NCc2ccccc2)ccc1O", "note": "(stereo not drawn)", "activity change, negative = growth inhibition": "inactive: 0.479%"}, {"smiles": "O=[N+]([O-])c1ccc(/C=N/Nc2cc(Cl)nc(-c3ccccc3)n2)cc1", "Potency": "inconclusive: 6.51 µM [inhibitor, partial curve]"}, {"smiles": "O=C(Cc1ccc(NC(=O)C2CCCN(C(=O)CCc3ccccc3)C2)cc1)Nc1cccc(C(=O)N2CCCC2)c1", "note": "(stereo not drawn)", "Potency": "active: 23.1 µM"}, {"smiles": "CS/C(N)=N/N=C/c1c(O)ccc2ccccc12", "Potency": "inconclusive: 29.1 µM [inhibitor, single point]"}, {"smiles": "C=C1C[C@H](OC(=O)C(C)(O)CCl)C2C(=C)C(=O)O[C@@H]2C2C1C[C@H](O)[C@]2(O)CCl", "note": "(stereo partly drawn)", "Potency": "active: 1.46 µM"}, {"smiles": "CC1(C(=O)NS(=O)(=O)c2ccccc2)CCN1C(=O)C1(c2ccc(Cl)cc2)CC1", "note": "(stereo not drawn)", "Potency": "inconclusive: 32.6 µM [inhibitor, single point]"}, {"smiles": "COc1nccnc1NS(=O)(=O)c1ccc(NC(=O)c2cccc(C)c2)cc1", "activity change, negative = growth inhibition": "inactive: 2.36%"}, {"smiles": "CCCCCN(C(=O)CCC(=O)OCc1ccccc1C(F)(F)F)c1c(N)n(CCCC)c(=O)[nH]c1=O", "Potency": "inconclusive: 18.4 µM [inhibitor, single point]"}, {"smiles": "C(=C\\c1ccccc1)/CN1CCN(C(c2cc3ccccc3o2)c2nnnn2C2CCCC2)CC1", "note": "(stereo not drawn)", "Potency": "inconclusive: 29.1 µM [inhibitor, single point]"}, {"smiles": "COc1cccc(C(=O)Nc2cccc(C(=O)OCc3cc(=O)n4c5c(sc4n3)CCCC5)c2)c1", "Potency": "inconclusive: 29.1 µM [inhibitor, single point]"}, {"smiles": "CCc1nn(CCCC(=O)NCc2cc(Br)ccc2OC)c(=O)c2cc3occc3n12", "Potency": "inconclusive: 16.4 µM [inhibitor, single point] and inconclusive: 18.4 µM [inhibitor, single point]"}, {"smiles": "COc1cc[n+]([O-])cc1[N+](=O)[O-]", "activity change, negative = growth inhibition": "inconclusive: -34.9% [inhibitor]"}, {"smiles": "COc1ccc2c(c1)CCC(C)N2C(=O)C(=O)c1c[nH]c2ccccc12", "note": "(stereo not drawn)", "Potency": "active: 20.6 µM"}, {"smiles": "O=C(NCCCCc1ccccc1)C1CCCC1", "activity change, negative = growth inhibition": "inactive: -25%"}, {"smiles": "Cc1cccc(NS(=O)(=O)c2ccc3c(c2)OCC(C(=O)N2CCCC2)O3)c1C", "note": "(stereo not drawn)", "Potency": "inconclusive: 29.1 µM [inhibitor, single point]"}, {"smiles": "Nc1nonc1C(=O)NCCNCc1ccccc1", "activity change, negative = growth inhibition": "inactive: -15.2%"}, {"smiles": "COCCNC(=O)C1(C)CCCN(Cc2noc(-c3ccccc3OC)n2)C1", "note": "(stereo not drawn)", "Potency": "inconclusive: 29.1 µM [inhibitor, single point]"}, {"smiles": "Cc1ccc2nc(-c3ccc4c(c3)OCCO4)cc(C(=O)O)c2c1", "activity change, negative = growth inhibition": "inactive: -5.81%"}, {"smiles": "CCCc1ccc(C(=O)O)cc1", "activity change, negative = growth inhibition": "inactive: -0.476%"}, {"smiles": "C/C(=N/Nc1ccc(C(=O)c2c(C)cc3ccccn23)cc1[N+](=O)[O-])c1ccc(O)cc1", "Potency": "active: 18.4 µM"}, {"smiles": "O=c1[nH]c(=O)n(C2CC(O)C(CO)O2)cc1Br", "note": "(stereo not drawn)", "Potency": "inconclusive: 1.64 µM [inhibitor, full curve]"}, {"smiles": "O=C(COC(=O)/C=C/c1ccc(C(F)(F)F)cc1)NCC1CCCO1", "note": "(stereo not drawn)", "Potency": "inconclusive: 29.1 µM [inhibitor, single point]"}, {"smiles": "Clc1cccc(Cl)c1/C=C/c1nc2ccccc2[nH]1", "Potency": "inconclusive: 20.6 µM [inhibitor, single point]"}, {"smiles": "CC1(C)CC(NC(=O)C2CCN(S(=O)(=O)c3ccc(Cl)c(C(F)(F)F)c3)CC2)CC(C)(C)N1", "Potency": "inconclusive: 29.1 µM [inhibitor, single point]"}, {"smiles": "CCCN(CCC)C(=O)Cc1ccc(F)cc1", "activity change, negative = growth inhibition": "inactive: -10.5%"}, {"smiles": "O=c1c2cccnc2n(Cc2cccc(F)c2)c(=O)n1Cc1ccccc1Cl", "Potency": "active: 14.6 µM"}, {"smiles": "Cc1ccc(-c2nnc(Nc3ccc(O)cc3)c3ccccc23)cc1S(=O)(=O)N1CCCCC1", "Potency": "active: 7.31 µM"}, {"smiles": "Cc1c(C(=O)N2CCOCC2)sc(NC(=O)c2ccccc2F)c1C#N", "activity change, negative = growth inhibition": "inactive: -5.94%"}, {"smiles": "Cc1ccc(Cn2c(SCC(C)C)nc3c2c(=O)n(C)c(=O)n3C)cc1", "Potency": "active: 25.9 µM"}, {"smiles": "CCOc1ccc(OCc2ccc(C(=O)N/N=C(\\C)c3ccccn3)cc2)cc1", "Potency": "active: 0.92 µM"}, {"smiles": "CCCCNc1c(-c2ccc(SC3CCCCC3)c(OC)c2)nc2ccc(Cl)cn12", "Potency": "inconclusive: 29.1 µM [inhibitor, single point]"}, {"smiles": "S=c1nccc(-c2ccc(Cl)cc2)[nH]1", "Potency": "inconclusive: 25.9 µM [inhibitor, single point]"}, {"smiles": "CCOC(=O)c1sc2nc(C)c3c(c2c1N)CC(C)(C)OC3", "activity change, negative = growth inhibition": "inactive: -8.28%"}, {"smiles": "Cc1cc(C(=O)N2CC(C)CC(C)C2)n(-c2ccccc2)n1", "note": "(stereo not drawn)", "Potency": "active: 10.3 µM"}, {"smiles": "CC(=O)c1c(N2CCN(Cc3ccccc3)CC2)[nH]c(-c2ccccc2)nc1=S", "Potency": "inconclusive: 16.4 µM [inhibitor, single point]"}, {"smiles": "c1ccc(OCCOc2ncnc3ccccc23)cc1", "Potency": "inconclusive: 29.1 µM [inhibitor, single point]"}, {"smiles": "NC(=O)c1ccc(Oc2ccc(Cl)cc2)c([N+](=O)[O-])c1", "Potency": "inconclusive: 29.1 µM [inhibitor, single point]"}, {"smiles": "COc1cccc(C2CC3(CC(C)(C)NC(=S)N3)Oc3cc(O)ccc32)c1", "note": "(stereo not drawn)", "Potency": "active: 11.6 µM"}, {"smiles": "Cc1ccc(NC(=O)/C=N/OCC(=O)NCc2ccccc2Cl)cc1", "Potency": "inconclusive: 23.1 µM [inhibitor, single point]"}, {"smiles": "CS(=O)(=O)Cc1nc2ccccc2oc1=O", "Potency": "active: 6.51 µM"}, {"smiles": "CCSc1nnc(NC(=O)c2cc(-c3ccc(C)c(C)c3O)n[nH]2)s1", "activity change, negative = growth inhibition": "inactive: -14.6%"}, {"smiles": "CCCc1nc(SCc2cccnc2)c2c(=O)n(C)c(=O)n(C)c2n1", "Potency": "inconclusive: 25.9 µM [inhibitor, single point]"}, {"smiles": "Cc1nc(N2CCc3ccccc3C2)[nH]c(=O)c1Cc1ccccc1", "activity change, negative = growth inhibition": "inactive: -2.1%"}, {"smiles": "COc1cc(/C=N/NC(=O)NC23CC4CC(CC(C4)C2)C3)ccc1OCC(N)=O", "Potency": "inconclusive: 10.3 µM [inhibitor, partial curve]"}, {"smiles": "COc1cccc(C2CC(c3cccs3)=NN2C(=O)CSC2=NN3CCCC(=O)N=C3S2)c1OC", "note": "(stereo not drawn)", "Potency": "inconclusive: 25.9 µM [inhibitor, single point]"}, {"smiles": "CCn1c(SC)nnc1-c1ccc(S(=O)(=O)N2CCCCC2)cc1", "activity change, negative = growth inhibition": "inconclusive: -30.2% [inhibitor]"}, {"smiles": "CCN(CC)S(=O)(=O)c1ccc(C(=O)NNC(=O)c2csc(N3CCOCC3)n2)cc1", "activity change, negative = growth inhibition": "inactive: -3.41%"}, {"smiles": "Cc1ccc(C(=O)NNC(=O)Cn2nnc3ccccc32)cc1", "activity change, negative = growth inhibition": "inactive: 0.604%"}, {"smiles": "O=C(NCCS(=O)(=O)N1CCN(c2ccc(F)cc2)CC1)C1CC(=O)N(c2ccccc2)C1", "note": "(stereo not drawn)", "Potency": "inactive"}, {"smiles": "NC(c1csc(Nc2cnccn2)n1)C1CCCCC1", "note": "(stereo not drawn)", "Potency": "active: 23.1 µM"}, {"smiles": "CSc1ccc(NC(=O)NCCCN2CCC(Cc3ccccc3)CC2)cc1", "Potency": "inconclusive: 16.4 µM [inhibitor, single point]"}, {"smiles": "CC(=O)Nc1ccc(-c2nnc(SCC(=O)c3ccc4c(c3)Cc3ccccc3-4)n2C)cc1", "Potency": "active: 13 µM"}]}]}
